Laboratory results as given in article PMC6919601, “Identification of Plasmodium dipeptidyl aminopeptidase allosteric inhibitors by high throughput screening” (PLoS ONE, 2019).
Among all 110,000 compounds or so, about 230 (0.21%) showed an effect of 50% or more. The list shows a part of the results.

These molecules were tested against DPAP1 (Plasmodium falciparum, UniProt Q8IIJ9) (assay: primary screen, percent inhibition; read by cleavage of a fluorogenic dipeptide substrate; higher = more effect of the substance).
Parameters: species or system P. falciparum D10 trophozoite lysates; single well
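Also: 30 min substrate incubation versus DMSO and 10 µM JCP410 controls.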

DPAP1, sequence (Q8IIJ9 whole entry, looked up): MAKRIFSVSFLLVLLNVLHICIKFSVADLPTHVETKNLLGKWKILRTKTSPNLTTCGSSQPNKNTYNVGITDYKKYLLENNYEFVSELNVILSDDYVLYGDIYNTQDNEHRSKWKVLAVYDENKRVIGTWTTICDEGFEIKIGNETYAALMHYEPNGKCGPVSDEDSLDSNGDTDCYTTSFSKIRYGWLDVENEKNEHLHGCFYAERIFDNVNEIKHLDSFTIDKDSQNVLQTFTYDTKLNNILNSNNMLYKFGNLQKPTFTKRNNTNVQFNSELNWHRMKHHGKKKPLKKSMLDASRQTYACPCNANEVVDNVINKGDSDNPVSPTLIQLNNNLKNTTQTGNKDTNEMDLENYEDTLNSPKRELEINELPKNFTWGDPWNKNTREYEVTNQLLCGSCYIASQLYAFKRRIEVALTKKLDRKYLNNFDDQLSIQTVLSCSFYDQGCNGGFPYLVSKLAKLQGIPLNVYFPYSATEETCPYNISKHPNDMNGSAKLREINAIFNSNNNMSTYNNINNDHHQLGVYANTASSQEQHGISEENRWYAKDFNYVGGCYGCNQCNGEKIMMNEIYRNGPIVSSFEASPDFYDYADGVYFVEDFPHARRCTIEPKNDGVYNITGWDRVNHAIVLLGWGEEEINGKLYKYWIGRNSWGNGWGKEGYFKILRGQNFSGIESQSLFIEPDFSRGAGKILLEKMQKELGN

Row | Structure (SMILES) | % Inhibition @ 10 uM [%]
1 | Cc1nn(C)c(C)c1C1C(C#N)=C(N)OC2=C1C(=O)CCC2 (centres unmarked) | -0.105
2 | COc1cc(CNCc2c(C(=O)O)c(C)n(Cc3ccc(F)cc3Cl)c2C)cc(OC)c1OC | 27.5
3 | CC(C)COC(=O)CC(CN)c1ccccc1 (centres unmarked) | 1.13
4 | Cc1ccc(CNC(=O)c2c(-c3ccccc3)noc2C)cc1 | -5.01
5 | CC(CN1CCC(O)CC1)c1ccccc1 (centres unmarked) | -0.603
6 | Nc1cc(C(=O)c2ccc(C(=O)O)c(N)c2)ccc1C(=O)O | 22.9
7 | COc1ccccc1CNC(=O)c1cc2c(s1)CSC2 | -2.14
8 | CCOC(=O)C1=CN(C)C=C(C(=O)OCC)C1c1cccc(OC)c1OC | -1.48
9 | COc1cccc(CNc2nc3nc(C)c(Cl)c(C)n3n2)c1 | -0.671
10 | COc1cccc(-c2nc(CS(=O)(=O)CC(=O)N3CCN(C)CC3)c(C)o2)c1 | -3.7
11 | COc1cc(OC)cc(C(=O)N[C@@H](CC(C)C)C(=O)NCC#N)c1 | -3.04
12 | O=CN1CCN(C2CCCCCC2)CC1 | -1.81
13 | Cc1ccsc1CCNS(=O)(=O)c1csc(C(N)=O)c1 | 0.581
14 | CCN(CC)S(=O)(=O)c1ccc(NC(=O)COc2ccc(Br)c(C)c2)cc1 | 0.658
15 | Cc1cccc(C(=O)Nc2nc3nc(C)c(Cl)c(C)n3n2)c1 | 5.2
16 | COc1ccc(-c2cn3c4ccccc4n(N)c3n2)cc1OC | -0.828
17 | CCOC(=O)C1=C(CN2CCN(c3ccccn3)CC2)NC(=O)NC1c1cccs1 (centres unmarked) | -5.18
18 | Cc1cccc(C)c1NC(=O)c1nccnc1C(=O)O | -2.66
19 | CC(Oc1ccc(Cl)cc1Cl)C(=O)Nc1ccccc1 (centres unmarked) | 0.907
20 | CC(NC(=O)CN(C)c1nnc(N2CCCC2=O)s1)c1ccccc1 (centres unmarked) | -4.59
21 | CCOCCCNC(=O)C(c1ccccc1)N(Cc1cccs1)C(=O)c1ccccc1O (centres unmarked) | -2.9
22 | O=C(CSc1ncccn1)N1c2ccccc2Sc2ccccc21 | -2.6
23 | CC(Nc1nc2ccccc2n2cnnc12)c1ccccc1 (centres unmarked) | 0.981
24 | N#CCNC(=O)C(CC(=O)Nc1cccc(C(N)=O)c1)CS(=O)(=O)Cc1ccccc1 (centres unmarked) | -8.82
25 | Cc1ccc(CSc2nc(=O)c3c(n2C)NC(=O)CC3c2cccc(F)c2F)cc1 (centres unmarked) | 3.84
26 | Cc1nn(C(C)C(=O)NC(C)c2ccccc2)c(=O)c2c1sc1ccccc12 (centres unmarked) | -0.856

Row | Structure (SMILES) | % Inhibition @ 10 uM [%]
27 | c1ccc(-n2nnnc2SCCCNCc2cccs2)cc1 | -2.88
28 | CC12CCC(C(N)=O)(c3nc4ccccc4nc31)C2(C)C (centres unmarked) | -5.13
29 | CCCNC(=O)CCCc1nnc2n(CCC)c(=O)c3sccc3n12 | -3.13
30 | c1ccc(-c2csc(N3CCC(c4ccccc4)CC3)n2)cc1 | 1.13
31 | CCC(C)NC(=O)C1=C(C)C(=O)OC12CCN(C(C)=O)CC2 (centres unmarked) | -0.234
32 | O=C(/C=C/c1ccccn1)c1ccc(C(=O)/C=C/c2ccccn2)cc1 | -0.261
33 | CCOP(=O)(CN(CC)CC)OCC | -8.49
34 | CC(C)C[C@H](NC(=O)c1cccc(NC(=O)N2CCN(C)CC2)c1)C(=O)NCC#N | -9.15
35 | COc1ccc(Br)cc1C1C2=C(CCCC2=O)N(CCC(=O)O)C2=C1C(=O)CCC2 | -0.703
36 | CCOC(=O)c1cc2c(=O)n3ccccc3nc2n(CC(C)C)/c1=N/C(=O)c1ccc(Cl)cc1 | -2.9
37 | CC(Cc1cccc(C(F)(F)F)c1)NC1CCN(Cc2ccccc2)CC1 (centres unmarked) | -5.31
38 | O=C(O)c1ccc(CNCc2cccc(Oc3ccccc3)c2)cc1 | 1.42
39 | CCOC(=O)N1CCC2(CC1)OC(=O)C(C)=C2C(=O)NCCCc1ccccc1 | 1.31
40 | CN(C1CCCCC1)S(=O)(=O)c1ccc(-c2ccc(O)nn2)o1 | -0.73
41 | COC(=O)c1ccc(OCC(O)CN2CCC(C)CC2)cc1 (centres unmarked) | -1.47
42 | NC(CC(=O)c1ccc(Cl)cc1Cl)C(Cl)(Cl)Cl (centres unmarked) | 1.33
43 | Oc1cccc(-c2nc(O)c3c4c(sc3n2)CCCC4)c1 | -2.84
44 | CC(C)CC(NC(=O)c1ccc2[nH]cnc2c1)C(=O)NCC#N (centres unmarked) | 9
45 | Sc1nnc(C2OCCc3ccccc32)o1 (centres unmarked) | -0.902
46 | CCC(C)N(CCNC(=O)Nc1cn(CC(C)C)c(=O)c2ccccc12)Cc1ccco1 (centres unmarked) | -4.02
47 | COC(=O)C1=CN(Cc2ccc(C)cc2)C=C(C(=O)OC)C1c1cc(F)ccc1F | 3.47
48 | Cc1nnc(SCC(=O)NCCC2=CCCCC2)c2nn(-c3ccccc3)c(C)c12 | 2.08
49 | Cc1cc(-c2ccc(S(=O)(=O)N3CCOCC3)s2)on1 | -0.342
50 | CCOc1ccc(NC(=O)C(c2ccccc2)c2ccccc2)cc1 | -1.92
51 | O=C(NC1CCCCC1)c1ccc2snnc2c1 | -5.36
52 | CCOC(=O)N1CCN(C(=O)CN(C)S(=O)(=O)c2ccc(Cl)cc2)CC1 | -3.63

Row | Structure (SMILES) | % Inhibition @ 10 uM [%]
53 | Cc1cc(C)c(S(=O)(=O)Nc2ccccc2F)c(C)c1 | -0.351
54 | CCOC(=O)C1CCN(Cc2cccc(Br)c2)CC1 | -1.86
55 | Cc1ccc(OCC(=O)Nc2cccc(NC(=O)COc3ccc(C)cc3)c2)cc1 | -0.95
56 | COc1ccc(C2(C)CC(=O)NC2=O)cc1 (centres unmarked) | -0.807
57 | CC1C(=O)C(C)C(c2ccccc2F)NC1c1ccccc1F (centres unmarked) | -3.21
58 | COCCCNC(=O)Cn1nc(-c2ccccc2)ccc1=O | -1.21
59 | COC(=O)c1sccc1NC(=O)c1cc2c(=O)oc3ccc(C)cc3c2s1 | -3.37
60 | O=CN1CCN(Cc2ccc(Cl)c(Cl)c2)CC1 | 2.91
61 | Cc1ccc(CNC(=O)N(Cc2ccc3c(c2)OCO3)C2CCN(Cc3ccccc3)CC2)cc1 | -0.613
62 | O=C(O)C1CC=CCC1C(=O)NCCCc1ccccc1 (centres unmarked) | 1.17
63 | COc1ccc(Cl)cc1-n1nnc(-c2nc(-c3ccccc3)no2)c1N | -4.17
64 | Cc1cccc(C(=O)Nc2ccc(Cl)c(Cl)c2)c1 | -6.82
65 | Cc1cc(OCCCOc2ccc(Cl)cc2/C=C2\NC(=O)NC2=O)cc(C)c1Cl | -3.75
66 | COc1ccc2ccccc2c1CN1CCN(C(=O)c2ccco2)CC1 | 3.95
67 | CCc1c(C#N)c(N)nc(SCC(=O)OCc2ccccc2)c1C#N | 1.44
68 | COc1ccc(C2C(C#N)=C(N)OC3=C2C(=O)CC(c2ccccc2)C3)cc1C (centres unmarked) | 5.08
69 | COc1cccc(S(=O)(=O)NCC(=O)N2CC(C)CC(C)C2)c1 (centres unmarked) | 0.755
70 | COc1cc(C2CC(=O)N3CN(Cc4ccccc4)CSC3=C2C#N)cc(Br)c1O (centres unmarked) | 57
71 | C/C(=N\CCO)C1=C(O)C(=O)N(CCO)C1c1ccc(Br)cc1 (centres unmarked) | 0.279
72 | O=S(=O)(c1cccc(S(=O)(=O)N2CCCCC2)c1)N1CCCCC1 | 1.96
73 | O=C(c1ccn(C(=O)NC2CCCCC2)n1)N1CCOCC1 | -5.62
74 | Cc1ccc(C(=O)O)cc1-c1ccc(/C=C2/NC(=O)N(Cc3ccccc3)C2=O)o1 | 11.8
75 | O=C(Nc1ccc(Cl)cc1C(=O)Nc1ccccc1C(=O)NCc1ccco1)c1ccco1 | 2.65
76 | CN1CCCCc2c1nc1ccccc1c2O | -0.902
77 | Cc1nn(-c2ccccc2)c2c1C(c1ccc(Br)cc1)SCC(=O)N2 (centres unmarked) | -1.33
78 | COc1ccc(-n2nc3c(c2NC(=O)c2ccc(C)cc2)CSC3)cc1 | 1.39

Row | Structure (SMILES) | % Inhibition @ 10 uM [%]
79 | Cc1nc2c(ccc3nsnc32)[nH]1 | -3.03
80 | CCCCNC(=O)C1c2ccccc2C(=O)N2CCc3cc(OCC)c(OCC)cc3C12 (centres unmarked) | 1.3
81 | Cc1ccc(S(=O)(=O)NCc2nnc(NC(=O)c3ccc(Br)cc3)s2)cc1 | -7.3
82 | N#CCc1ccc(NC(=O)COc2ccc(Cl)cc2Cl)cc1 | -0.891
83 | COc1ccc2nc(O)c(NC(N)=S)nc2c1 | 1.89
84 | OCCN1CCN(CC2CC3C=CC2C3)CC1 (centres unmarked) | 2.91
85 | Brc1ccccc1CN1CCN(Cc2c[nH]c3ccccc23)CC1 | -6.57
86 | COCCN1C(=O)c2oc3cc(C)c(C)cc3c(=O)c2C1c1ccccc1F (centres unmarked) | 3.93
87 | CCOCCCNC(=O)c1ccc(CS(=O)Cc2ccc(C)cc2)o1 (centres unmarked) | 0.401
88 | COc1ccc(C2=N/C(=C\c3coc4ccccc4c3=O)C(=O)O2)cc1 | -3.44
89 | C#CCOc1c(Br)cc(C2C(C#N)=C(N)OC3=C2C(=O)CC(C)(C)C3)cc1OCC (centres unmarked) | 3.62
90 | COc1ccccc1Oc1cc(-n2nc(SC)c(C#N)c2N)ncn1 | -3.16
91 | Cn1nc(C(=O)NC2CCN(Cc3ccccc3)CC2)c2c1-c1ccccc1SC2 | -3.51
92 | O=C(O)c1ccccc1-n1c(=O)c2cc3c(=O)n(-c4ccccc4C(=O)O)c(=O)c3cc2c1=O | -1.42
93 | CCCN(CCC)C(=O)CSc1nc2nnc(C)c-2c(N)n1-c1ccc(C)c(C)c1 | 0.992
94 | COc1cccc(C(=O)c2ccc(O)cc2)c1 | -0.215
95 | COc1cccc(C2CC(c3c(O)cc(C)oc3=O)=Nc3ccccc3S2)c1O (centres unmarked) | -3.62
96 | Cc1cccc2c1C(C)(c1ccccc1)CC(C)(C)N2C(=O)Cc1ccccc1 (centres unmarked) | 0.467
97 | COc1c(C)cccc1C(=O)Nc1ccc(CN2CCOCC2)cc1 | -8.41
98 | CCN(CC)S(=O)(=O)c1ccc(-c2cn3cc(Cl)ccc3n2)cc1 | -4.28
99 | O=c1c2ccccc2n2c(-c3cccs3)nnc2n1CCc1ccccc1 | -5.6
100 | CC(=O)OC1CSc2nc3ccccc3n2C1 (centres unmarked) | 5.16
101 | NC(=O)c1ccccc1-c1ccccc1C(=O)O | -1.97
